Hit rate of the full screen: of about 360,000 compounds, about 6,000 (1.7%) were called active. The shares of active, inactive and inconclusive entries below differ from those in the screen. The call rests on the fitted dose curve; in most records, active means well fitted cell-killing curve with a large enough effect; inconclusive means small, poorly fitted or top-dose-only effect, or effect the other way; inactive means flat fitted curve, though single readings scatter. Potencies of inconclusive entries are left out as doubtful fits.
Assay: qHTS for induction of synthetic lethality in tumor cells producing 2HG: qHTS for the HT-1080-NT fibrosarcoma cell line;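 further: NT is the 2HG producing partner of a matched IDH1 knockdown line; nearly all actives have a fitted effect of over 55% in size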;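 on activity, negative = less viability: 0% = DMSO-treated cells and -100% = media-only wells without cells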
Details: HT-1080-NT fibrosarcoma viability, CellTiter-Glo ATP luminescence, 48 h; activity, negative = less viability: at 46.1 µM (top of the series) unless noted
Method in brief: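 Luminescent CellTiter-Glo readout after 48 hours of compound exposure at 37 degrees C defined viability of HT-1080-NT cells. Activity was normalized to DMSO wells and cell-free media wells; concentration-response curves were fitted and assigned curve classes.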
Potency means the concentration at half of the fitted maximal effect; tags describe the fitted curve by direction and shape.

SMILES	Potency	activity, negative = less viability
Cc1nc2cc(NS(=O)(=O)c3c(C)c(C)cc(C)c3C)ccc2s1	active: 12.6 µM	
Cc1c(Cc2ccccc2)c(=O)[nH]c(=O)n1C		inactive: 5.71%
Cn1c(CC(=O)Nc2ccc(Cl)c(Cl)c2)nnc1SCC(=O)N1CCN(c2ccccc2)CC1	inconclusive [cytotoxic, single point]	
Cc1ccc2c(CN(C)Cc3ccccc3)cc(=O)oc2c1		inconclusive: -32.7% [cytotoxic]
O=C(Nc1ccccc1)NC1CCCCNC1=O (centres undefined)		inactive: -5.23%
Cc1cccc(C)c1OCC(=O)N/N=C/c1ccc2c(c1)OCO2	active: 14.6 µM	
COc1cc(OC)cc(C(=O)N[C@H](C(=O)OCC(=O)Nc2ccc(C(N)=O)cc2)C(C)C)c1	inconclusive [rising, partial curve, poor fit]	
OCCC#Cc1ccc(N2C(c3ccsc3)=Cc3ccc(F)cc3C2c2c[nH]c3ccccc23)cc1 (centres undefined)	inconclusive [cytotoxic, single point]	
COc1cc(NCCCC(C)N)c2ncccc2c1 (centres undefined)	active: 20.6 µM	
CN(C)CC(O)COC(c1ccc(Cl)cc1)c1ccc(Cl)cc1 (centres undefined)	active: 20.6 µM	
Cc1cccc(/C=C\c2nc3ccccc3c(=O)[nH]2)c1	inconclusive [cytotoxic, full curve]	
Cc1cccc(N2CCN(C(=O)CCCn3c(=O)c4cccn4c4cccnc43)CC2)c1C	inconclusive [cytotoxic, single point]	
CC(Sc1ccccc1)C(=O)NCCc1ccccc1 (centres undefined)		inactive: 6.41%
Cc1ccc2c(c1)NC(=O)C(CC(=O)NCCCN1CCN(c3cc(Cl)ccc3C)CC1)O2 (centres undefined)	inconclusive [cytotoxic, single point]	
COc1ccc(/C=C2\N=C(c3c(-c4ccccc4)noc3C)OC2=O)cc1OC		inactive: 12.7%
Cc1nn(C(C)C(=O)NCc2ccccc2)c(C)c1[N+](=O)[O-] (centres undefined)		inactive: 7.32%
O=C(O)CCCCCNC(=O)Cn1nnc2ccccc2c1=O		inactive: -6.12%
O=C1C(Nc2ccccc2)=C(N2CCCCC2)C(=O)c2ccccc21	inconclusive [cytotoxic, single point]	
Cc1cc(C)c(NC(=O)c2c[nH]c(=S)n2-c2ccc(F)cc2)c(C)c1	inconclusive [rising, single point]	
CC1(NC(=O)CC(c2ccccc2)(c2ccccc2)c2ccccc2)CCN(CCCc2ccccc2)C1=O (centres undefined)	inconclusive [cytotoxic, single point]	
CC(Nc1nc(N2CCCC2)nc2ccccc12)c1ccccc1 (centres undefined)	inconclusive [cytotoxic, single point]	
O=c1cc(NC2CCCCC2)c2ccccc2o1	inconclusive [cytotoxic, single point]	
CC(C)C[C@@H](CN1CCCC1CN1C(=S)NC[C@@H]1Cc1ccccc1)N1C[C@H](Cc2ccc(O)cc2)N(CC2CCCCC2)C1=S (some centres undefined)	inconclusive [cytotoxic, single point]	

SMILES	Potency	activity, negative = less viability
CCCCCCc1ccc(OC(=O)c2ccncc2)cc1		inactive: -0.251%
CCC1(C)Cc2ccccc2-c2nc(SC)[nH]c(=O)c21 (centres undefined)	inconclusive [cytotoxic, full curve]	
O=C(Nc1nccs1)c1nc[nH]c1C(=O)NCc1ccccc1	inconclusive [cytotoxic, full curve]	
O=C(CN1C(=O)C(=O)N(CCC2=CCCCC2)C1=O)c1c[nH]c2ccccc12		inactive: -4.08%
O=C(Nc1ccc(N2CCN(C(=O)c3cccs3)CC2)cc1)c1ccccc1Cl	inconclusive [cytotoxic, partial curve]	
CCC[C@@H](CN1CCC[C@H]1CN1C(N)=NC[C@H]1CC(C)C)N1C[C@@H](Cc2ccccc2)N(CCc2ccc(Cl)c(Cl)c2)C1=N		inactive: -2.02%
COc1ccc(CNC[C@@H](CCCCN(C)Cc2ccc(OC)cc2)N2C[C@H](c3ccccc3)N(CCc3ccc(Cl)c(Cl)c3)C(=O)C2=O)cc1	active: 18.4 µM	
Cc1ccc(-c2csc(-c3c[nH]c4ccccc34)n2)c(C)c1	inconclusive [cytotoxic, single point]	
O=S1(=O)Nc2c(ccc3cccnc23)-c2ccccc21	active: 0.562 µM	
O=C1OC[C@@H]2CCCN2C(=O)[C@H](CC(=O)N(CCO)Cc2ccccc2)C/C=C\C[C@H]1Cc1ccc(F)cc1		inactive: -4.48%
CC(C)(C#N)NC(=O)C1CCCN1S(=O)(=O)c1ccc2ccccc2c1 (centres undefined)	inconclusive [cytotoxic, partial curve, poor fit]	
Cc1nn(Cc2ccccc2Cl)c(C)c1C(=O)NCC(c1cccs1)N1CCOCC1 (centres undefined)		inactive: -1.64%
CN(C)CCNC(=O)c1cccc(-c2cnc3c(NC=O)cc(-c4cccc(F)c4)cn23)c1	inconclusive [cytotoxic, single point]	
C[C@H](CO)N1C[C@H](C)[C@@H](CN(C)S(=O)(=O)c2ccc(F)cc2)Oc2ccc(NC(=O)C3CCCCC3)cc2C1=O		inactive: -0.185%
CCc1ccc(NC(=O)Cn2ncc3c4ccccc4n(C)c3c2=O)cc1		inactive: 1.29%
C=CCn1c(=S)[nH]c2scc(-c3ccc(C)o3)c2c1=O	active: 13 µM	
COc1ccc(CNC(=O)c2cccc3c(-c4ccc(F)c(F)c4)coc23)cc1OC	inconclusive [cytotoxic, single point]	
O=C(COC(=O)c1ccccc1O)Nc1ccc(OC(F)F)cc1	inconclusive [rising, partial curve]	
COc1ccc(C2c3[nH]c4ccccc4c3CCN2Cc2cccn2-c2ncccn2)cc1C (centres undefined)	active: 25.9 µM	
COC(=O)c1ccc2nc(Nc3nc4ccc(F)cc4s3)sc2c1	inconclusive [cytotoxic, single point]	
C[C@@H]1C=CC(=O)O[C@@H]1c1ccc(Cl)cc1	inconclusive [cytotoxic, partial curve]	
O=[N+]([O-])c1cccc(NNS(=O)(=O)c2ccccc2F)c1	inconclusive [cytotoxic, single point]	
c1ccc(Cn2nnc3c(Nc4ccc5c(c4)OCO5)nc(C4CC4)nc32)cc1	inconclusive [cytotoxic, single point]	

SMILES	Potency	activity, negative = less viability
COc1ccc(C=C(c2nc3ccccc3s2)c2nc3ccccc3s2)cc1O	inconclusive [cytotoxic, single point]	
COc1ccc(CCc2cc(OC)c(OC)c(OC)c2)cc1	active: 1.64 µM	
O=C(CCCSc1nc2ccccc2c(=O)[nH]1)c1ccccc1	inconclusive [cytotoxic, single point]	
COc1cccc(CN(C)CC(O)COC(c2ccccc2)c2ccccc2C)c1 (centres undefined)	active: 23.1 µM	
CN1CCN(C(=O)c2cc3c(c(-c4cccc(Br)c4)n2)[C@H](CCO)N(S(=O)C(C)(C)C)C3)CC1 (some centres undefined)	inconclusive [rising, single point]	
O=C(CCN1CCN(c2ccccc2)CC1)N/N=C/c1ccccc1O	inconclusive [cytotoxic, partial curve, poor fit]	
COc1cc(Nc2c3ccccc3nc3ccccc23)cc(OC)c1OC	active: 10.3 µM	
COCCCN=C1NN=C(c2cc(C)n(-c3ccccc3F)c2C)CS1	inconclusive [cytotoxic, single point]	
COc1cc(Cl)ccc1OC1(C)CCN(Cc2ccc(SC)cc2)C1 (centres undefined)	inconclusive [cytotoxic, partial curve, poor fit]	
NC(=O)CC(NC(=O)c1ccc(Br)cc1)c1ccc(NC2CCCCCCC2)c([N+](=O)[O-])c1 (centres undefined)	inconclusive [cytotoxic, single point]	
COC(=O)[C@H](Cc1ccccc1)NC(=O)NCCc1ccc(F)cc1	inconclusive [cytotoxic, single point]	
CC(C)C[C@@H](CN1CCC[C@H]1CN1C(=O)C(=O)NC[C@@H]1Cc1ccccc1)N1C[C@H](Cc2ccccc2)N(CCc2ccccc2)C(=O)C1=O	inconclusive [cytotoxic, single point]	
O=c1[nH]c(Nc2nc3ccccc3o2)nc2c1CCCC2	active: 2.24 µM	
Cc1ccn2c(=O)nc(SCC(=O)N3N=C(c4cccs4)CC3c3ccc(F)cc3)nc2c1 (centres undefined)		inactive: -6.82%
CC(=O)N1c2c(cc(Br)cc2S(=O)(=O)NCc2cccnc2)CC1C (centres undefined)		inactive: -3.64%
COc1ccc(C(=O)/C=C2/C(=O)Nc3ccccc32)cc1	inconclusive [cytotoxic, single point]	
Cc1ccc(OCC(=O)Nc2cc(S(=O)(=O)N3CCCCC3)ccc2N2CCN(C)CC2)c(C)c1		inactive: -14.7%
C=CCn1c(=O)c(C(=O)Nc2cc(C)ccn2)c(O)c2ccccc21	inconclusive [rising, partial curve, poor fit]	
CC(C)(C)C(=O)NC(=S)NNC(=O)C(c1ccccc1)c1ccccc1	active: 18.4 µM	
Cc1ccc(NC(=S)NNC(C)(C)C)cc1	inconclusive [cytotoxic, single point]	
NS(=O)(=O)c1ccc(CCNc2nn3c(-c4cccc(OC(F)(F)F)c4)cnc3s2)cc1	active: 8.2 µM	
COC(=O)c1c(-c2c(Cl)cccc2Cl)noc1NC(=O)NN1CCCCC1	inconclusive [cytotoxic, single point]	
Cc1ccc(-c2sc(C(=O)NN)c(C)c2C#N)cc1	inconclusive [cytotoxic, partial curve]	
